{
  "sequences": {"note": "Sequences of proteins named here, by UniProt entry; tags and fusion partners are left off.", "UniProt O94986": "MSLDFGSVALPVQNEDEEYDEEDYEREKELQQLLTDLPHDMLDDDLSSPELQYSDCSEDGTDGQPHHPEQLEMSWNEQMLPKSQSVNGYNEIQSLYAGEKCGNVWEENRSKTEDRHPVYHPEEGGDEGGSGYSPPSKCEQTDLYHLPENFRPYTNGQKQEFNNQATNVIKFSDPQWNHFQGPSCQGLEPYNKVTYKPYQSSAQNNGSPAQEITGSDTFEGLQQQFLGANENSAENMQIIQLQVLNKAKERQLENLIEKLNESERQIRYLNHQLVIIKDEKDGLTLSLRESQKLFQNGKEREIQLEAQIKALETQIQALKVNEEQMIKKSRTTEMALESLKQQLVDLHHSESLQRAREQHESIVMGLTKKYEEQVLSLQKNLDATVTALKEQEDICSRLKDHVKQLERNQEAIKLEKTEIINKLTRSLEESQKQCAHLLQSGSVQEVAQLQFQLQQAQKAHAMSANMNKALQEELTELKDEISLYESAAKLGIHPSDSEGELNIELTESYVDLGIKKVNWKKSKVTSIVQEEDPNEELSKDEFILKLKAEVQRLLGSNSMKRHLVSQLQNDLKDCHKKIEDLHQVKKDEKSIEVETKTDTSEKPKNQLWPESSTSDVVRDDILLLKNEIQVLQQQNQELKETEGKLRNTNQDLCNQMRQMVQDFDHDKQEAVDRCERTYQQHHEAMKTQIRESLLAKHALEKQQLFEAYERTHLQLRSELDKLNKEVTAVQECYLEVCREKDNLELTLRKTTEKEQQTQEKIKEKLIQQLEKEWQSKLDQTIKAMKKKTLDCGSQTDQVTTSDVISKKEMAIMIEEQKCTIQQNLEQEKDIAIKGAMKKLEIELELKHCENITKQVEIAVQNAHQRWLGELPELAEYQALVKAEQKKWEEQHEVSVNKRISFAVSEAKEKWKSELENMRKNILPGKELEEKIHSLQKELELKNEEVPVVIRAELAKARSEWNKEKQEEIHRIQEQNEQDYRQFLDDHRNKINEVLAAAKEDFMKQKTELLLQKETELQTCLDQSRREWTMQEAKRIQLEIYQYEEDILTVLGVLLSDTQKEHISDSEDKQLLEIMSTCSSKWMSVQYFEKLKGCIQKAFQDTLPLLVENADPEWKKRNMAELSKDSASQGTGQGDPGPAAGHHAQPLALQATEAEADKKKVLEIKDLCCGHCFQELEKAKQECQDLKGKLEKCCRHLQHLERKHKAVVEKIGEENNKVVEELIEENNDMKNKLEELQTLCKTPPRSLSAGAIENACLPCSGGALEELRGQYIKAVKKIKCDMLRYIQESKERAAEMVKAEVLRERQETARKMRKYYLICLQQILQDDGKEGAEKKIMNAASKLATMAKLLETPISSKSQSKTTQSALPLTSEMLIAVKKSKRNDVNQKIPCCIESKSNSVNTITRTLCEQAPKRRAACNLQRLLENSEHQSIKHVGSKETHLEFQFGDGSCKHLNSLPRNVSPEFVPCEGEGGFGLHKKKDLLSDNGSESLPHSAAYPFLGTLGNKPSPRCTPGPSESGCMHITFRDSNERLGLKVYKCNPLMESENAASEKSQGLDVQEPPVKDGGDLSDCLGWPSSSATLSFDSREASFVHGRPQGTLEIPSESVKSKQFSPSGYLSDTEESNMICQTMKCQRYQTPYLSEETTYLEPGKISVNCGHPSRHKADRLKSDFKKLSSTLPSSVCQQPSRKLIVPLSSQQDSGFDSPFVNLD"},
  "source": "paper PMC9590400",
  "molecules": {"B1": {"name": "CEP131, endogenous in HeLa (protein, UniProt Q9UPN4 1-1083)", "chain": "MKGTRAIGSVPERSPAGVDLSLTGLPPPVSRRPGSAATTKPIVRSVSVVTGSEQKRKVLEATGPGGSQAINNLRRSNSTTQVSQPRSGSPRPTEPTDFLMLFEGSPSGKKRPASLSTAPSEKGATWNVLDDQPRGFTLPSNARSSSALDSPAGPRRKECTVALAPNFTANNRSNKGAVGNCVTTMVHNRYTPSERAPPLKSSNQTAPSLNNIIKAATCEGSESSGFGKLPKNVSSATHSARNNTGGSTGLPRRKEVTEEEAERFIHQVNQATVTIQRWYRHQVQRRGAGAARLEHLLQAKREEQRQRSGEGTLLDLHQQKEAARRKAREEKARQARRAAIQELQQKRALRAQKASTAERGPPENPRETRVPGMRQPAQELSPTPGGTAHQALKANNTGGGLPAAGPGDRCLPTSDSSPEPQQPPEDRTQDVLAQDAAGDNLEMMAPSRGSAKSRGPLEELLHTLQLLEKEPDVLPRPRTHHRGRYAWASEVTTEDDASSLTADNLEKFGKLSAFPEPPEDGTLLSEAKLQSIMSFLDEMEKSGQDQLDSQQEGWVPEAGPGPLELGSEVSTSVMRLKLEVEEKKQAMLLLQRALAQQRDLTARRVKETEKALSRQLQRQREHYEATIQRHLAFIDQLIEDKKVLSEKCEAVVAELKQEDQRCTERVAQAQAQHELEIKKLKELMSATEKARREKWISEKTKKIKEVTVRGLEPEIQKLIARHKQEVRRLKSLHEAELLQSDERASQRCLRQAEELREQLEREKEALGQQERERARQRFQQHLEQEQWALQQQRQRLYSEVAEERERLGQQAARQRAELEELRQQLEESSSALTRALRAEFEKGREEQERRHQMELNTLKQQLELERQAWEAGRTRKEEAWLLNREQELREEIRKGRDKEIELVIHRLEADMALAKEESEKAAESRIKRLRDKYEAELSELEQSERKLQERCSELKGQLGEAEGENLRLQGLVRQKERALEDAQAVNEQLSSERSNLAQVIRQEFEDRLAASEEETRQAKAELATLQARQQLELEEVHRRVKTALARKEEAVSSLRTQHEAAVKRADHLEELLEQHRRPTPSTK"}, "B2": {"name": "CEP63, endogenous in HeLa (protein, UniProt Q96MT8 1-703)", "chain": "MEALLEGIQNRGHGGGFLTSCEAELQELMKQIDIMVAHKKSEWEGRTHALETCLKIREQELKSLRSQLDVTHKEVGMLHQQVEEHEKIKQEMTMEYKQELKKLHEELCILKRSYEKLQKKQMREFRGNTKNHREDRSEIERLTAKIEEFRQKSLDWEKQRLIYQQQVSSLEAQRKALAEQSEIIQAQLVNRKQKLESVELSSQSEIQHLSSKLERANDTICANELEIERLTMRVNDLVGTSMTVLQEQQQKEEKLRESEKLLEALQEEKRELKAALQSQENLIHEARIQKEKLQEKVKATNTQHAVEAIRPREESLAEKKYTSQGQGDLDSVLSQLNFTHTSEDLLQAEVTCLEGSLESVSATCKQLSQELMEKYEELKRMEAHNNEYKAEIKKLKEQILQGEQSYSSALEGMKMEISHLTQELHQRDITIASTKGSSSDMEKRLRAEMQKAEDKAVEHKEILDQLESLKLENRHLSEMVMKLELGLHEAKEISLADLQENYIEALNKLVSENQQLQKDLMNTKSQLEISTQMCKKQNDRIFKPTHSRTTEFKNTEFKPTHGQHRHDGIKTEHYKTDLHSPRGQASDSINPMSRVLSPLSPQISPCSSTRSLTSYSLCKTHSLPSALDTNEANFSDTMSESMNDQEEFISSCSLPVSPLGSIATRFLEEEELRSHHILERLDAHIEELKRESEKTVRQFTALK"}, "B3": {"name": "small kinetochore-associated protein (SKAP), endogenous in HeLa (protein, UniProt Q9Y448 1-316)", "chain": "MAAPEAPPLDRVFRTTWLSTECDSHPLPPSYRKFLFETQAADLAGGTTVAAGNLLNESEKDCGQDRRAPGVQPCRLVTMTSVVKTVYSLQPPSALSGGQPADTQTRATSKSLLPVRSKEVDVSKQLHSGGPENDVTKITKLRRENGQMKATDTATRRNVRKGYKPLSKQKSEEELKDKNQLLEAVNKQLHQKLTETQGELKDLTQKVELLEKFRDNCLAILESKGLDPALGSETLASRQESTTDHMDSMLLLETLQEELKLFNETAKKQMEELQALKVKLEMKEERVRFLEQQTLCNNQVNDLTTALKEMEQLLEM"}, "B4": {"name": "astrin (sperm-associated antigen 5), endogenous in HeLa (protein, UniProt Q96R06 1-1193)", "chain": "MWRVKKLSLSLSPSPQTGKPSMRTPLRELTLQPGALTNSGKRSPACSSLTPSLCKLGLQEGSNNSSPVDFVNNKRTDLSSEHFSHSSKWLETCQHESDEQPLDPIPQISSTPKTSEEAVDPLGNYMVKTIVLVPSPLGQQQDMIFEARLDTMAETNSISLNGPLRTDDLVREEVAPCMGDRFSEVAAVSEKPIFQESPSHLLEESPPNPCSEQLHCSKESLSSRTEAVREDLVPSESNAFLPSSVLWLSPSTALAADFRVNHVDPEEEIVEHGAMEEREMRFPTHPKESETEDQALVSSVEDILSTCLTPNLVEMESQEAPGPAVEDVGRILGSDTESWMSPLAWLEKGVNTSVMLENLRQSLSLPSMLRDAAIGTTPFSTCSVGTWFTPSAPQEKSTNTSQTGLVGTKHSTSETEQLLCGRPPDLTALSRHDLEDNLLSSLVILEVLSRQLRDWKSQLAVPHPETQDSSTQTDTSHSGITNKLQHLKESHEMGQALQQARNVMQSWVLISKELISLLHLSLLHLEEDKTTVSQESRRAETLVCCCFDLLKKLRAKLQSLKAEREEARHREEMALRGKDAAEIVLEAFCAHASQRISQLEQDLASMREFRGLLKDAQTQLVGLHAKQEELVQQTVSLTSTLQQDWRSMQLDYTTWTALLSRSRQLTEKLTVKSQQALQERDVAIEEKQEVSRVLEQVSAQLEECKGQTEQLELENSRLATDLRAQLQILANMDSQLKELQSQHTHCAQDLAMKDELLCQLTQSNEEQAAQWQKEEMALKHMQAELQQQQAVLAKEVRDLKETLEFADQENQVAHLELGQVECQLKTTLEVLRERSLQCENLKDTVENLTAKLASTIADNQEQDLEKTRQYSQKLGLLTEQLQSLTLFLQTKLKEKTEQETLLLSTACPPTQEHPLPNDRTFLGSILTAVADEEPESTPVPLLGSDKSAFTRVASMVSLQPAETPGMEESLAEMSIMTTELQSLCSLLQESKEEAIRTLQRKICELQARLQAQEEQHQEVQKAKEADIEKLNQALCLRYKNEKELQEVIQQQNEKILEQIDKSGELISLREEVTHLTRSLRRAETETKVLQEALAGQLDSNCQPMATNWIQEKVWLSQEVDKLRVMFLEMKNEKEKLMIKFQSHRNILEENLRRSDKELEKLDDIVQHIYKTLLSIPEVVRGCKELQGLLEFLS"}, "B5": {"name": "Myc-binding protein (MYCBP), endogenous in HeLa (protein, UniProt Q99417 1-103)", "chain": "MAHYKAADSKREQFRRYLEKSGVLDTLTKVLVALYEEPEKPNSALDFLKHHLGAATPENPEIELLRLELAEMKEKYEAIVEENKKLKAKLAQYEPPQEEKRAE"}},
  "key": {"[1]": {"biological_target": "T1, Coiled-coil alpha-helical rod protein 1 (HCR), endogenous in HeLa (human (endogenous in HeLa)) (UniProt Q8TD31)", "T1 sequence": "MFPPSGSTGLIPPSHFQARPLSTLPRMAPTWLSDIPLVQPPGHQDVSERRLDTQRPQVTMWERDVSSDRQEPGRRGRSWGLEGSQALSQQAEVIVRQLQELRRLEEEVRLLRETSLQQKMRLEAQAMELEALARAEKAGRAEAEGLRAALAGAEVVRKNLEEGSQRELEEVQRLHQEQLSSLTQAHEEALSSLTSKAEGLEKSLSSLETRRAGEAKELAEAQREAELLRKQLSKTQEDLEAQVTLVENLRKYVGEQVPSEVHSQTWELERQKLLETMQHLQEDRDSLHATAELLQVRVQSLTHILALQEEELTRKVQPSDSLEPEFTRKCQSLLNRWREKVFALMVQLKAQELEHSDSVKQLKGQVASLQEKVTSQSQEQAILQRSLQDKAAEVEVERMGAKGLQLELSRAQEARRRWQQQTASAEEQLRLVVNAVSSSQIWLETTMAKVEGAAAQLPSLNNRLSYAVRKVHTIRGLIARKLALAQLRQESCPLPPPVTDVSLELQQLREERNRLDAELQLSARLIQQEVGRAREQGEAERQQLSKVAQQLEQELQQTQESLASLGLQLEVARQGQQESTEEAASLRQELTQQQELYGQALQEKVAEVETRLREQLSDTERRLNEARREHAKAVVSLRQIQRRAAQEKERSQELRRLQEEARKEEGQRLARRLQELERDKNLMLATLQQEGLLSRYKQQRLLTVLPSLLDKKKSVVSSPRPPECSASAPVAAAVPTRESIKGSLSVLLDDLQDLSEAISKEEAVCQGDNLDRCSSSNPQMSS", "experiment": "co-IP; endogenous proteins in HeLa cell lysates (50 mM Tris, 150 mM NaCl, 0.1% NP40); antibody to one partner or control rabbit IgG, protein A and protein G beads, 4 °C; western blot"}, "[2]": {"biological_target": "T1, Coiled-coil alpha-helical rod protein 1 (HCR), endogenous in HeLa (human (endogenous in HeLa))", "experiment": "co-IP; endogenous proteins in HeLa cell lysates (50 mM Tris, 150 mM NaCl, 0.1% NP40); antibody to one partner or control rabbit IgG, protein A and protein G beads, 4 °C; western blot", "remark": "listed apart in the source"}},
  "note": "Where two headings read alike, the source gives them in different places. These are yes or no findings as the source states them, for the method shown. In cells and extracts the contact can be indirect. Some results given as binding are weak or reduced against the parent protein; the word gives no strength. For part of these data: Tags and fused reporters may be left off the sequences shown.",
  "data": [
    {"molecule": "CEP152, endogenous in HeLa (from UniProt O94986 1-1710)", "values": [
      {"measurement": "binding", "setting": "[1]", "result": "no binding"}
    ]},
    {"molecule": "B1", "values": [
      {"measurement": "binding", "setting": "[2]", "result": "binds"}
    ]},
    {"molecule": "B2", "values": [
      {"measurement": "binding", "setting": "[2]", "result": "no binding"}
    ]},
    {"molecule": "B3", "values": [
      {"measurement": "binding", "setting": "[2]", "result": "no binding"}
    ]},
    {"molecule": "B4", "values": [
      {"measurement": "binding", "setting": "[2]", "result": "binds"}
    ]},
    {"molecule": "B5", "values": [
      {"measurement": "binding", "setting": "[2]", "result": "no binding"}
    ]}
  ]
}
